Results from the supplement of paper PMC12578646, “Prodrug florfenicol amine is activated by intrinsic resistance to target Mycobacterium abscessus” (Nature Microbiology, 2025).
± gives the standard deviation of the averaged measurements. M. abscessus ATCC 19977 and its deletion, point and complemented mutants after 5 days of drug at 37 °C plus 24 h of resazurin. Growth in % of untreated wells at the dose given (lower = more inhibition); checkerboards give % inhibition (higher = more inhibition); IC50 from the fitted curve (lower = more potent). No active / inactive call. IC50 values come from the same 384-well curves. Growth is not capped and can exceed 100%. The direction of the checkerboard scale is read from the raw signals. Capreomycin is a mixture.

Tests used:
Experiment in all cases: growth relative to untreated wells; higher = more growth (less inhibition)
[1] = test system: Mycobacterium abscessus ATCC 19977 Eis2 E120fs
Method: (§1)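 384-well two-fold dose series, two replicates; 5 days at 37 °C, then 24 h with resazurin; fluorescence scaled to growth and killed controls.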

[2] = test system: Mycobacterium abscessus ATCC 19977 Eis2 T258R
Method: as §1

[3] = test system: Mycobacterium abscessus ATCC 19977 Eis2 Y227D
Method: as §1

[4] = test system: Mycobacterium abscessus ATCC 19977 Eis2 Y255*
Method: as §1

[5] = test system: Mycobacterium abscessus ATCC 19977 Eis2 Y284*
Method: as §1

[6] = test system: Mycobacterium abscessus ATCC 19977 WhiB7 A51T
Method: as §1

[7] = test system: Mycobacterium abscessus ATCC 19977 WhiB7 F24fs
Method: as §1

[8] = test system: Mycobacterium abscessus ATCC 19977 WhiB7 L37P
Method: as §1

[9] = test system: Mycobacterium abscessus ATCC 19977 WhiB7 T70fs
Method: as §1

[10] = test system: Mycobacterium abscessus ATCC 19977 Δeis2
Method: as §1

[11] = test system: Mycobacterium abscessus ATCC 19977 ΔwhiB7
Method: as §1

[12] = test system: Mycobacterium abscessus ATCC 19977
Method: as §1

CC[C@H]1OC(=O)[C@H](C)[C@@H](O[C@H]2C[C@@](C)(OC)[C@@H](O)[C@H](C)O2)[C@H](C)[C@@H](O[C@@H]2O[C@H](C)C[C@H](N(C)C)[C@H]2O)[C@](C)(O)C[C@@H](C)CN(C)[C@H](C)[C@@H](O)[C@]1(C)O [azithromycin]
Conditions	growth [%]
[1], 0.03125 µg/mL	98.8 ± 1
[1], 0.0625 µg/mL	108.69 ± 0.098
[1], 0.125 µg/mL	119 ± 13
[1], 0.25 µg/mL	123 ± 8.9
[1], 0.5 µg/mL	113 ± 0.77
[1], 1 µg/mL	45.6 ± 18
[1], 2 µg/mL	6.85 ± 0.46
[1], 4 µg/mL	2.63 ± 3.3
[1], 8 µg/mL	-0.777 ± 0.23
[1], 16 µg/mL	-1.31 ± 0.23
[1], 32 µg/mL	-0.923 ± 0.93
[1], 64 µg/mL	-1.57 ± 0.22
[2], 0.03125 µg/mL	100 ± 3.4
[2], 0.0625 µg/mL	108 ± 5.8
[2], 0.125 µg/mL	115 ± 7.2
[2], 0.25 µg/mL	107 ± 16
[2], 0.5 µg/mL	63 ± 9.8
[2], 1 µg/mL	8.899 ± 0.081
[2], 2 µg/mL	2.74 ± 0.29
[2], 4 µg/mL	-1.93 ± 0.87
[2], 8 µg/mL	-1.3 ± 1.7
[2], 16 µg/mL	-2.8 ± 0.16
[2], 32 µg/mL	-2.24 ± 0.39
[2], 64 µg/mL	-1.87 ± 0.33
[3], 0.03125 µg/mL	105 ± 9.2
[3], 0.0625 µg/mL	113 ± 2.3
[3], 0.125 µg/mL	123 ± 3.1
[3], 0.25 µg/mL	123 ± 3.9
[3], 0.5 µg/mL	90.5 ± 5.5
[3], 1 µg/mL	36.2 ± 0.95
[3], 2 µg/mL	6.73 ± 0.33
[3], 4 µg/mL	2.84 ± 0.22
[3], 8 µg/mL	0.809 ± 0.16
[3], 16 µg/mL	-0.0637 ± 0.16
[3], 32 µg/mL	-0.113 ± 0.52
[3], 64 µg/mL	-0.626 ± 0.61
[4], 0.03125 µg/mL	94.4 ± 1.2
[4], 0.0625 µg/mL	106 ± 6.9
[4], 0.125 µg/mL	121 ± 7.2
[4], 0.25 µg/mL	122 ± 5.9
[4], 0.5 µg/mL	82.3 ± 12
[4], 1 µg/mL	24.3 ± 8.3
[4], 2 µg/mL	4.28 ± 3.1
[4], 4 µg/mL	-1.52 ± 3
[4], 8 µg/mL	-3.07 ± 2.5
[4], 16 µg/mL	-2.94 ± 2.6
[4], 32 µg/mL	-3.08 ± 2
[4], 64 µg/mL	-3.33 ± 2.2
[5], 0.03125 µg/mL	97.7 ± 6
[5], 0.0625 µg/mL	108 ± 6.9
[5], 0.125 µg/mL	117 ± 7.1
[5], 0.25 µg/mL	120 ± 5.8
[5], 0.5 µg/mL	87.9 ± 33
[5], 1 µg/mL	36.3 ± 13
[5], 2 µg/mL	6.06 ± 5.4
[5], 4 µg/mL	0.971 ± 1.8
[5], 8 µg/mL	0.032 ± 0.1
[5], 16 µg/mL	-0.938 ± 0.34
[5], 32 µg/mL	-1.56 ± 0.16
[5], 64 µg/mL	-1.92 ± 0.53
[6], 0.03125 µg/mL	98.7 ± 14
[6], 0.0625 µg/mL	111 ± 2.6
[6], 0.125 µg/mL	115 ± 2.9
[6], 0.25 µg/mL	118 ± 1.2
[6], 0.5 µg/mL	71.4 ± 23
[6], 1 µg/mL	3.18 ± 1.6
[6], 2 µg/mL	-2.03 ± 0.11
[6], 4 µg/mL	-3.55 ± 0.22
[6], 8 µg/mL	0.812 ± 7
[6], 16 µg/mL	-0.952 ± 3
[6], 32 µg/mL	-2.08 ± 0.72
[6], 64 µg/mL	-1.57 ± 0.43
[7], 0.03125 µg/mL	98.2 ± 7.8
[7], 0.0625 µg/mL	104 ± 2
[7], 0.125 µg/mL	113 ± 2.9
[7], 0.25 µg/mL	98.7 ± 6.9
[7], 0.5 µg/mL	38 ± 23
[7], 1 µg/mL	0.916 ± 0.92
[7], 2 µg/mL	-2.55 ± 0.76
[7], 4 µg/mL	-3.22 ± 0.74
[7], 8 µg/mL	-2.83 ± 1
[7], 16 µg/mL	-2.55 ± 1
[7], 32 µg/mL	-2.14 ± 0.66
[7], 64 µg/mL	-1.29 ± 0.8
[8], 0.03125 µg/mL	98.828 ± 0.057
[8], 0.0625 µg/mL	108.1 ± 0.6
[8], 0.125 µg/mL	115 ± 1.4
[8], 0.25 µg/mL	111.8 ± 0.21
[8], 0.5 µg/mL	51.3 ± 28
[8], 1 µg/mL	3.5 ± 1.7
[8], 2 µg/mL	-1.32 ± 0.11
[8], 4 µg/mL	-3.09 ± 0.38
[8], 8 µg/mL	-3.17 ± 0.27
[8], 16 µg/mL	-2.68 ± 0.077
[8], 32 µg/mL	-1.891 ± 0.0021
[8], 64 µg/mL	-1.51 ± 0.084
[9], 0.03125 µg/mL	93.5 ± 5.8
[9], 0.0625 µg/mL	105 ± 1.8
[9], 0.125 µg/mL	113 ± 5.7
[9], 0.25 µg/mL	81.3 ± 31
[9], 0.5 µg/mL	17.4 ± 8.2
[9], 1 µg/mL	-1.66 ± 0.79
[9], 2 µg/mL	-3.87 ± 0.91
[9], 4 µg/mL	-0.401 ± 5.8
[9], 8 µg/mL	-5.26 ± 0.81
[9], 16 µg/mL	-4.41 ± 1.2
[9], 32 µg/mL	-3.94 ± 0.93
[9], 64 µg/mL	-1.06 ± 2.3
[10], 0.03125 µg/mL	98.3 ± 9.3
[10], 0.0625 µg/mL	105 ± 8.6
[10], 0.125 µg/mL	116 ± 5.1
[10], 0.25 µg/mL	110 ± 7.5
[10], 0.5 µg/mL	77.2 ± 62
[10], 1 µg/mL	12.5 ± 8.6
[10], 2 µg/mL	3.69 ± 4.2
[10], 4 µg/mL	-2.83 ± 0.36
[10], 8 µg/mL	-2.96 ± 0.14
[10], 16 µg/mL	-1.94 ± 1.7
[10], 32 µg/mL	-3.06 ± 0.94
[10], 64 µg/mL	-2.31 ± 0.34
[11], 0.03125 µg/mL	93.9 ± 6.8
[11], 0.0625 µg/mL	114 ± 8.1
[11], 0.125 µg/mL	122.32 ± 0.0078
[11], 0.25 µg/mL	107 ± 9
[11], 0.5 µg/mL	41.9 ± 4.9
[11], 1 µg/mL	5.29 ± 0.36
[11], 2 µg/mL	-2.85 ± 3
[11], 4 µg/mL	-5.14 ± 4.2
[11], 8 µg/mL	-5.35 ± 4.2
[11], 16 µg/mL	-4.77 ± 4.4
[11], 32 µg/mL	-4.48 ± 4.3
[11], 64 µg/mL	-4.07 ± 4.1
[12], 0.03125 µg/mL	101 ± 12
[12], 0.0625 µg/mL	110 ± 2.9
[12], 0.125 µg/mL	121 ± 1.8
[12], 0.25 µg/mL	97 ± 22
[12], 0.5 µg/mL	37.4 ± 1.8
[12], 1 µg/mL	7.92 ± 5.3
[12], 2 µg/mL	1.8 ± 0.91
[12], 4 µg/mL	-0.0144 ± 2.2
[12], 8 µg/mL	-1.68 ± 0.58
[12], 16 µg/mL	-1.59 ± 0.84
[12], 32 µg/mL	-2 ± 0.074
[12], 64 µg/mL	4.26 ± 7.2
